In the RNAGym collection of RNA variant scans (doi:10.1093/nar/gkz1192):
Read counts are not given, so values of variants with three or more changes are uncertain.

B1: CPEB3 Ribozyme (parent)
chain: UAACAGGGGGCCACAGCAGAAGCGUUCACGUCGCAGCCCCUGUCAGAUUCUGGUGAAUCUGCGAAUUCUGCUGUAUAUCUC

Variants of: B1
Assay: self-cleavage, relative activity (ratio to wild type); higher = more cleavage; in vitro, sequencing
Outline: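 Relative activity was defined as the cleaved/total read fraction for a variant divided by the same fraction for the unmutated ribozyme. CPEB3 self-cleaving ribozyme libraries were made by rounds of error-prone PCR, barcoded, and transcribed in vitro with T7 RNA polymerase for 5 hours at 37°C, and cleavage ran through transcription plus a 15 min DNase I step before EDTA. Illumina sequencing of template-switched reverse transcripts gave the reads, and DNA sequencing mapped the barcodes. Averages come from three batches, using variants with at least 5 reads.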

| Variant | self-cleavage |
| --- | --- |
| U48A A56U U78C | 0.39 |
| A47G U66C U72A | 0.34 |
| A45G A47U U67A | 0.2 |
| A45U A56U U66A U72C U78C | 0.14 |
| A45U A56G U58G U78C | 0.07 |
| A45G A56G U69A A75G | 0.23 |
| A45G U51C U54C | 0.48 |
| A45G U54C A56G U67A C68U | 0.32 |
| U48A U58C U72C U80G | 0.1 |
| G46C A47G C68A U72C U74C | 0.17 |
| A45G A64G U66C | 0.47 |
| A45G U54A A56G | 0.52 |
| A45G U48C A64C A65U A77G | 0.08 |
| A47G A64U U72C | 0.34 |
| A47G A56G A57G | 0.33 |
| A45G A47G C59G U67C U80C | 0.12 |
| A47U U51C U80C | 0.65 |
| A45G A57C A65G | 0.04 |
| A45G U48C U66A | 0.12 |
| A47G U49C G73A | 0.56 |
| A47U U74C A75C U76A | 1.22 |
| A45U A56G A64G G73A | 0.67 |
| A45U A47G C71A | 0.27 |
| A45G G55U U60C U67C A75G | 0.13 |

| Variant | self-cleavage |
| --- | --- |
| A47U A56U A65G | 0.06 |
| A47C U66C U78A U80A | 0.18 |
| A47U C59U U60A A64G U72C | 0.1 |
| A45G U48C A56C U80C | 0.21 |
| A47G A56G U80A | 1.17 |
| U48A U51C U67C U80A | 0.14 |
| G46U U58C U67A | 0.19 |
| U48C A57U U69C U72A | 0.1 |
| A45G U54C U78C | 0.75 |
| A47G U51C G52U A65U A75G | 0.13 |
| A45G U49G U54C | 0.16 |
| A45G G53U U60A | 0.9 |
| A47G U66C A75G | 0.09 |
| A47G U51A C71A U80G | 0.47 |
| A45G U54A A64G A65G U72A | 0.41 |
| A47G U51A C59U | 0.42 |
| A47G U60A U80C | 0.61 |
| A45G C50U U69C | 0.22 |
| U48C A56G U60C U67C U69G | 0.26 |
| G46U A47C A57G U67C U72C A75G | 0.09 |
| A45G A47G U76C | 0.54 |
| A45G U49A A56G | 0.28 |
| G46U A56G A64G | 0.17 |
| A47U U49C A57U | 0.57 |

| Variant | self-cleavage |
| --- | --- |
| A45U U78G U80C | 0.35 |
| A47G G53C A57G U67C U72C | 0.57 |
| U48C A57G U60A | 0.78 |
| G46U U49A U54A | 0.17 |
| A47G U54A U58C | 1.17 |
| A45G A57G C62A | 0.27 |
| A45G U58G A77G U80C | 0.12 |
| A45G U48C C68G U80C | 0.13 |
| A45U U72G G73A | 0.65 |
| A47C A57G A75U | 0.43 |
| A47G A56U C62A A75G | 0.15 |
| A47U A56C C79A | 0.29 |
| A47U A65G U74C A75G | 0.35 |
| A47G U60C C81A | 0.45 |
| A45G A57G U60C U66G U74G | 0.77 |
| A45U U72C A75U | 0.14 |
| A45U U51A A56G | 0.4 |
| A45U A65U G73A C79U | 0.25 |
| A45G A47G U51C | 0.53 |
| A45G A47G U51G | 0.28 |
| U48A U51C G63U | 0.24 |
| G46U U51C A77G | 0.11 |
| A45U U51C U67C | 0.24 |
| A47G U72C U78C | 1.21 |

| Variant | self-cleavage |
| --- | --- |
| A45U A64U U66C U78C | 0.12 |
| A45G U54A U78C | 0.92 |
| A45G A57G A64G U72C | 0.56 |
| A47G U58C C68U U72A | 0.49 |
| A47G A57G U60A | 0.19 |
| G46C A47G U51A | 0.15 |
| A45G U60A G61C | 0.27 |
| A45G A47G U51A G63A | 0.28 |
| A45U U49C C68U | 0.09 |
| A47G U67C U76G | 0.33 |
| A45G U69C U76A U80A | 0.31 |
| A47G U58C U78A | 1.22 |
| A47U U48C A57G | 0.75 |
| A47G U60A U74C | 1 |
| G46U A47U A56G G73U | 0.18 |
| A47G U51C A57G U76C | 0.27 |
| A45G U54C U74C | 1.17 |
| A47U U51A A56G A64G | 0.15 |
| A47G U60C A75G U76A | 0.12 |
| A45U U49C U51G A57G U80C | 0.16 |
| A45G A47U G52U | 0.24 |
| A47G A57U U66C | 0.18 |
| A45G U51C G52U U76A | 0.95 |
| A45G U51C U66A | 0.33 |

| Variant | self-cleavage |
| --- | --- |
| A45G U54A U60G | 0.28 |
| A45G U54A U60A | 0.54 |
| A45G G61C U76A | 0.22 |
| G46A U69A U72A | 0.07 |
| G46A U66C U78A U80C | 0.11 |
| A47U U54A U74C | 0.31 |
| A47U G55A U78C U80G | 0.13 |
| A45G U48C G53U | 0.36 |
| A45U U51A A65G A75C | 0.15 |
| A47U U49A U80C | 0.31 |
| A45G U58C A64G U76A | 0.14 |
| A47G U49C U54A U69C | 0.24 |
| A45G C59U A64U | 0.22 |
| A47G U48C A56U A57G U66C | 0.11 |
| A47G C50G C62U U69C | 0.12 |
| A45U G52U A64G | 0.31 |
| G46A U54C A65G C71A | 0.06 |
| A45U U49A U58A A75G U80C | 0.05 |
| A47U U76C U80C | 0.97 |
| A47G U58C A65U | 0.21 |
| A45G C62G A65G | 0.24 |
| A47G U49A U54A | 0.53 |
| A45U U60C A77U | 0.62 |
| A45G G46A U78C | 0.25 |

| Variant | self-cleavage |
| --- | --- |
| U48C A56G U60G | 0.24 |
| U48C A57U U80C | 0.85 |
| A45U A57G C62U U74G | 0.21 |
| U48A C62U A65U | 0.07 |
| A45G U49A U54A U67A U72C U80C | 0.24 |
| A45G A47G U54G U76A | 0.54 |
| U48C A64U U72A | 0.24 |
| A45G G55A U66C | 0.22 |
| A45G U49C U67C U80A | 0.12 |
| A47U U49C U60G C81U | 0.05 |
| A45G G52A U67C U78A | 0.37 |
| A47G U67C U72C | 0.36 |
| U48A C50A G63A U72C | 0.27 |
| U48C A57U U69C U74A | 0.21 |
| A45G U48C U58C | 0.2 |
| A45G C50A U60A U67A | 0.12 |
| A45U G55A U60A | 1.04 |
| A47C A65G U67C | 0.15 |
| U48C A56G U60A G63A U74C | 0.22 |
| A47G U48A A56U | 0.31 |
| G46A U54C C59A | 0.27 |
| A45G U48C U54A A65G U67C U72C | 0.19 |
| A45U A65G C68U | 0.38 |
| A45U A65G C68A | 0.28 |

| Variant | self-cleavage |
| --- | --- |
| A45G A64G A65U | 0.32 |
| A47G A56G G70C | 0.18 |
| A45G U54A U80C | 0.8 |
| A47G U49A A57G A65G U69A | 0.08 |
| A45U U66C A77G | 0.17 |
| A45U U49A U78A | 0.21 |
| A45G U60C U67A | 0.6 |
| U48A U51A A75G | 0.36 |
| U48C A64G U67A | 0.36 |
| U48C A56G U74A | 0.2 |
| A47U A56G U69A U72C | 0.22 |
| A47G A65G U80A | 0.48 |
| A45G A56G C71U | 0.53 |
| A45U G46U U72C | 0.14 |
| A47G U58A U78G | 0.39 |
| A47U U51C U69C | 0.22 |
| A47G A64G U66C U76G | 0.09 |
| A45U U69A A77U U78A | 0.39 |
| A45G U49A U51C C68A U76C | 0.4 |
| A47G A64G U67C A77G | 0.21 |
| A45U U58C A64G U72G | 0.12 |
| A45G A47U U49G | 0.09 |
| A47U A56C U58C | 0.39 |
